Experimental findings from paper PMC7819943, “Rice protein-binding microarrays: a tool to detect cis-acting elements near promoter regions in rice” are described below.

The list shows a part of the results.

The target of the test is T1, OsWOX13 (Oryza sativa, UniProt Q5QMM3 1-267).
T1 sequence: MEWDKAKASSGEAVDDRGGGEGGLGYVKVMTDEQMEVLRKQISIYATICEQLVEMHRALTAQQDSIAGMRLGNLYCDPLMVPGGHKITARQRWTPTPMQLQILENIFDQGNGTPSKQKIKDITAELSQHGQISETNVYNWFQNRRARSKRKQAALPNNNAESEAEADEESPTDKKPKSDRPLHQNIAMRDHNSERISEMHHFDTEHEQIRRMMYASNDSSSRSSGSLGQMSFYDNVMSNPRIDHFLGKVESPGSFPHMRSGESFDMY
The test is described as follows: protein-binding microarray (RPBM); PBS, 2% BSA, 51.3 ng/ul salmon testes DNA, 50 uM zinc acetate, 200 nM TF, 25 C, 1 h; high values mean tight binding. The following applies: protein: recombinant; tags: N-terminal polyhistidine and DsRed monomer fusion (pET32a); label: CyDye5-dUTP incorporated in the synthesized complementary strand; 3' TTTTT single-stranded linker to array surface; dsDNA, one strand shown. A digest of the protocol: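 A custom Agilent array was converted to double-stranded form by primer extension with Cy5-dUTP and blocked with 2% BSA. Protein at 200 nM in PBS with 2% BSA, salmon testes DNA and 50 µM zinc acetate was applied for 1 h at 25 °C, followed by washing. The proteins were polyhistidine–DsRed N-terminal fusions of transcription factors, expressed in E. coli BL21-CodonPlus and Ni–NTA-purified. The binding signal is per-feature fluorescence intensity (arbitrary units) from an Axon 4000B scanner.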
As to “AAGAATTGATGACCTCAGCCTTCAACGTTACTTGAAATTCCGGAGTCACCTAGTGCAG”, the binding signal was 6420 fluorescence intensity (a.u.).
The value for “AATTAGAATTCAATTAAAATCTAAATAACTCAAAAGGTCGCGGAGTCACCTAGTGCAG” was 10100 fluorescence intensity (a.u.).
Consider “GGCAATTAGTTGCATTAATATAGTAGTTTATAATTGCAAGCGGAGTCACCTAGTGCAG”, for which the binding signal was 6660 fluorescence intensity (a.u.).
The value for “ACAAGTGATTATATAGTGATAATGCAGTAATGTAGTGGAGCGGAGTCACCTAGTGCAG” was 14300 fluorescence intensity (a.u.); that for “TTCTTCTCAATCAGAGTCAACTGACCAACACATAAGCCCACGGAGTCACCTAGTGCAG” was 11600 fluorescence intensity (a.u.).
For “ACCAAACAATTGTCCGATTGATCAGCATGCTCTGACCTGACGGAGTCACCTAGTGCAG”, the binding signal is 6020 fluorescence intensity (a.u.).
For “TTAAGATAATCTATAATATTAAATTACTAGTGGATAATGACGGAGTCACCTAGTGCAG”, the binding signal is 4680 fluorescence intensity (a.u.).
As to “GGAGTAGAATTGATAGTGGATAATATTGTAATCAAGGAAACGGAGTCACCTAGTGCAG”, the binding signal was 4920 fluorescence intensity (a.u.).
Turning to “AACAGTAGTTCATGGTGGTGATTGGTGAAGGCTGATTGTGCGGAGTCACCTAGTGCAG”, the binding signal was 3720 fluorescence intensity (a.u.).
The value for “CGTCACAAATTAAGGCATCCTTCTCTACGTATCTACACTGCGGAGTCACCTAGTGCAG” was 4680 fluorescence intensity (a.u.); that for “GTGAATTAGACTAAAATAGCATTCACCCGTTGTAACGCATCGGAGTCACCTAGTGCAG” was 6510 fluorescence intensity (a.u.); that for “CCATATATAATTGAAATTGCTTTTAACTCGTTGCAACGCACGGAGTCACCTAGTGCAG” was 27100 fluorescence intensity (a.u.).
Regarding “GGTGAATTGAAACATTATTTTGTAACAAATCACCCACATACGGAGTCACCTAGTGCAG”, the binding signal is 8020 fluorescence intensity (a.u.).
As for “GACTTAGATTTGAAGAGATCCGTCACTTGAAATCTACCCCCGGAGTCACCTAGTGCAG”, the binding signal is 3720 fluorescence intensity (a.u.).
The value for “TACACGCTCACGCACGAAGTGATTGATAATAGCACACATTCGGAGTCACCTAGTGCAG” was 6990 fluorescence intensity (a.u.); that for “TGTCGTGATTAAACCATTAATTAATAATAATTCCAGGTTCCGGAGTCACCTAGTGCAG” was 48500 fluorescence intensity (a.u.).
With “GTTGATGAGAAGAACCATGGTGCTATACAAGGTACCATTGCGGAGTCACCTAGTGCAG”, the binding signal was 6210 fluorescence intensity (a.u.).
In the case of “CCTCGTTAACTGCAACCCATCGATTGCCACATCTACACCTCGGAGTCACCTAGTGCAG”, the binding signal is 8360 fluorescence intensity (a.u.).
With “AATTAATTAACCCGGTAGGTTAGTATAGCACTCTGCAGTTCGGAGTCACCTAGTGCAG”, the binding signal is 23900 fluorescence intensity (a.u.).
Take “TTTAATATGTTAATGGTGTTGGATAGATATTGTAGCTACTCGGAGTCACCTAGTGCAG”: the binding signal was 3750 fluorescence intensity (a.u.).
Take “AATGATAAATTGAACAACTAATATGAACATATTAAAACGTCGGAGTCACCTAGTGCAG”: the binding signal is 30500 fluorescence intensity (a.u.).
“AGTTGACAGGCTGCTCGTAAATACAAGCGGCCAATGCTGACGGAGTCACCTAGTGCAG”: the binding signal is 25700 fluorescence intensity (a.u.).
The value for “CAATGGTAAATTTATCCAGTCCAAAGTGAAAATATATGGTCGGAGTCACCTAGTGCAG” was 3960 fluorescence intensity (a.u.); that for “TTGTAATGAGATTTTGGTTCAGTGCATGTGATCTTCTGTGCGGAGTCACCTAGTGCAG” was 3290 fluorescence intensity (a.u.); that for “TTGACAAATTTTCTAAGTTTGCTCATTTCATTCCTTTAGCCGGAGTCACCTAGTGCAG” was 6030 fluorescence intensity (a.u.).
Consider “GTACTATTCGGCATCAATCACGGCATGTTATGGTCCGTGCCGGAGTCACCTAGTGCAG”, for which the binding signal was 10600 fluorescence intensity (a.u.).
Take “GGATGAACTGTCAGCATTTTGATTAGTTTTAAAATGTCAGCGGAGTCACCTAGTGCAG”: the binding signal was 8740 fluorescence intensity (a.u.).
With “CGAATCTGATTTGGGTTTTGGGCCTTGTAATTGTGTCGTGCGGAGTCACCTAGTGCAG”, the binding signal is 10400 fluorescence intensity (a.u.).
For the sequence “TGGGACCTAAATTGAACTTATTTCCTATGTACGAGTGAGACGGAGTCACCTAGTGCAG”, the binding signal is 11000 fluorescence intensity (a.u.).
Turning to “TCACCAAAATCAACATGAACTGATCAGTTCTTGTCCAGTACGGAGTCACCTAGTGCAG”, the binding signal was 10900 fluorescence intensity (a.u.).
The value for “TTTCCACATGAATCTCTTAATCAATCACTGATTCCAGATACGGAGTCACCTAGTGCAG” was 7150 fluorescence intensity (a.u.); that for “TATTGGAAAATAAACAAAATTGATTAAACATGTTCTATTTCGGAGTCACCTAGTGCAG” was 18700 fluorescence intensity (a.u.); that for “TTCTAATAATAATGATTTAAACATTATGTATCTCCAAATTCGGAGTCACCTAGTGCAG” was 10900 fluorescence intensity (a.u.).
On to “TATCAATAACAAACTAATGAAATTGCTTTGTTAAACTGTACGGAGTCACCTAGTGCAG”, for which the binding signal was 11200 fluorescence intensity (a.u.).
The value for “CCCAATTGGTGATTAGATAATCCTGTCACTTTCTTCAAGTCGGAGTCACCTAGTGCAG” was 54100 fluorescence intensity (a.u.); that for “TTTCCTTTGAAGAACACTAATTAGCATTTTGGACTGGGTTCGGAGTCACCTAGTGCAG” was 7120 fluorescence intensity (a.u.); that for “ATTAAATCGACTATAGATGATTTGAAGCTAATAGTTGACTCGGAGTCACCTAGTGCAG” was 13900 fluorescence intensity (a.u.).
The value for “TCCCATTTGATTAAAATTCTCTGCAAAGCATACCAGTGATCGGAGTCACCTAGTGCAG” was 10000 fluorescence intensity (a.u.); that for “ACTTGATTGGGCCGACGATGCACGGCAAGGAGCAGAGGCACGGAGTCACCTAGTGCAG” was 46500 fluorescence intensity (a.u.).
Take “TTCTCGCTAATGACATGTGATTGGGAGAAATGCGTGGTGGCGGAGTCACCTAGTGCAG”: the binding signal is 49600 fluorescence intensity (a.u.).
The value for “AATGATTCCAAAATTGAGTTTTAAAATTCAAATTTGACTACGGAGTCACCTAGTGCAG” was 5620 fluorescence intensity (a.u.).
As to “ATGTTGAGTTAATTGTTCACGAGCCTTGTACCTGGTGCCACGGAGTCACCTAGTGCAG”, the binding signal is 6830 fluorescence intensity (a.u.).
